We go through 7 substances from paper PMC4434885.

Amino acid sequences for entries named in this document (tags omitted).
UniProt O15131: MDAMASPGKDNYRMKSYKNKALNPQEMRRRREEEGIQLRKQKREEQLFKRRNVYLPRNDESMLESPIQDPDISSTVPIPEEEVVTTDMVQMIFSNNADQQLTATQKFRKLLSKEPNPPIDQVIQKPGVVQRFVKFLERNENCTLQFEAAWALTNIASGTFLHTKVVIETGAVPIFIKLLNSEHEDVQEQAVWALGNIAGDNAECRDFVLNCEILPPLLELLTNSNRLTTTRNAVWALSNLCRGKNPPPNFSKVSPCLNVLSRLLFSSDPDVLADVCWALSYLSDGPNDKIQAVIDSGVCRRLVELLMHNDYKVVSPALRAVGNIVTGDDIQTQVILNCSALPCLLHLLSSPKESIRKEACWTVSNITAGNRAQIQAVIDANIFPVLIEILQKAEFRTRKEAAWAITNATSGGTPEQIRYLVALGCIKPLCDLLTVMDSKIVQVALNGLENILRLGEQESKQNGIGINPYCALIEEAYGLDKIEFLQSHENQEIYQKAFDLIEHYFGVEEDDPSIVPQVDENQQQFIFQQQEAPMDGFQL
UniProt O00629: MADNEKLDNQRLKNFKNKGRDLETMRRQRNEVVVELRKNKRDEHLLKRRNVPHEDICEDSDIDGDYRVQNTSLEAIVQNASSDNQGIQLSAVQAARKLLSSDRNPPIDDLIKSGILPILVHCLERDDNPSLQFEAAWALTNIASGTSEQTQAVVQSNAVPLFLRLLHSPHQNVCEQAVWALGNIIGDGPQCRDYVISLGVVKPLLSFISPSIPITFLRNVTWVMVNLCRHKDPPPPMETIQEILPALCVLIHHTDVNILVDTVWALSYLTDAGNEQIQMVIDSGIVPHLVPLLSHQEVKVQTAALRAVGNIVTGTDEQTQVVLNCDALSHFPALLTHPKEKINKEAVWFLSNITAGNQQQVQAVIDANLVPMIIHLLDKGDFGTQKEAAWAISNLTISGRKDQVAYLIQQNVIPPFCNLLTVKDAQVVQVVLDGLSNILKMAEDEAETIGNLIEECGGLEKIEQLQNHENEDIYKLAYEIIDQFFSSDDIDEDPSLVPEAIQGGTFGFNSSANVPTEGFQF
UniProt Q14974: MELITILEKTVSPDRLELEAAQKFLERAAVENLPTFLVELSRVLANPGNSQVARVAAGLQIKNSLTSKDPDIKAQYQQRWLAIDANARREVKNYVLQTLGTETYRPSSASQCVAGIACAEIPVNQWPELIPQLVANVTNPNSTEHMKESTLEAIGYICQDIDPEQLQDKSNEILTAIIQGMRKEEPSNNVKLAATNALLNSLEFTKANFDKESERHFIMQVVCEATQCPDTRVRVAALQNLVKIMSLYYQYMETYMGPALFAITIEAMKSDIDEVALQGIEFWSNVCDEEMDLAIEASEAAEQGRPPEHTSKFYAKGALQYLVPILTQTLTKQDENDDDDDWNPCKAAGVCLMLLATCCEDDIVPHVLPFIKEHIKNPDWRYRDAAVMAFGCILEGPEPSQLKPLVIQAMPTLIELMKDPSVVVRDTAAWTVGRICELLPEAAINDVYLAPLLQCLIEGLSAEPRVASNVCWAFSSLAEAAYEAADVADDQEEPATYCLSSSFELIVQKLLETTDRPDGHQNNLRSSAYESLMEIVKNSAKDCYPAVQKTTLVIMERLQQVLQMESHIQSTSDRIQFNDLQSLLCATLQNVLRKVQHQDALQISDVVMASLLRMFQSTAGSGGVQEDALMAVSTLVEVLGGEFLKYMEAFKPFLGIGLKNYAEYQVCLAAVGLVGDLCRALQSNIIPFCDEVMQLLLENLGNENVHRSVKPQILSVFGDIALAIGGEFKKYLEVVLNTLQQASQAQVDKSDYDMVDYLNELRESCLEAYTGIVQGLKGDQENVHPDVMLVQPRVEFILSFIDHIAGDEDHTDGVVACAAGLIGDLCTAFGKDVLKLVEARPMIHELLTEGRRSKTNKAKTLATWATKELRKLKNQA

Results are given in words; binding and its absence hold for the method and conditions named. For some assays here: Binding seen in cells or lysates may run through a third protein. Some binding calls cover weakened binding; strength is not graded here.

The target in assay [1] is LexA-MSP58 (58-kDa microspherule protein, full length) (UniProt Q96EZ8). The experiment in a line: two-hybrid; directed test in S. cerevisiae L40: LexA-MSP58 constructs (pBTM116) as bait, Gal4 AD-importins (pACT2) as prey; growth without histidine, X-Gal colony assay and quantitative liquid β-galactosidase assay.
Assay [2] concerns the target GST-importin α6 (full length) (UniProt O15131). In words: pull-down; GST or GST-importin α1 or α6 pre-bound to glutathione-Sepharose, mixed with COS-1 cell lysates containing EGFP-MSP58 1–100 or 102–300; anti-GFP Western blot; only the target purified. In general terms: In western blotting, separated proteins are transferred to a membrane and probed.
Assay [3] has the same target. In words: pull-down; 2 μg GST or GST-importin α1 or α6 with in vitro translated MSP58 (40 μl), 1-2 h, 10 mM Hepes pH 7.5, 50 mM NaCl, 0.1% Nonidet P-40, 0.5 mM DTT, 0.5 mM EDTA; glutathione Sepharose; anti-HA Western blot; only the target purified.
Assay [4] has as its target HA-MSP58 (full length, stably expressed in HT1080) (UniProt Q96EZ8). In words: co-IP; lysates (modified RIPA buffer) of HT1080 cells stably expressing HA-MSP58; anti-HA immunoprecipitation, protein A/G PLUS-agarose; Western blot for endogenous importins; mouse IgG as control.
A further assay has as its target LexA-MSP58 102–300 (UniProt Q96EZ8). In words: two-hybrid; directed test in S. cerevisiae L40: LexA-MSP58 constructs (pBTM116) as bait, Gal4 AD-importins (pACT2) as prey; growth without histidine, X-Gal colony assay and quantitative liquid β-galactosidase assay.
Another assay concerns the target LexA-MSP58 1–100 (UniProt Q96EZ8). The description is as above.
The target of another assay is LexA-MSP58 300–462 (UniProt Q96EZ8). The assay is described as above.
The next assay has as its target LexA-MSP58 1–300 (UniProt Q96EZ8). The assay is described as above.

As to “Gal4 AD-importin α3 (entire) (from UniProt O00629 1-521)”, the binding entry in assay [1] is “no binding”.

Turning to “EGFP-MSP58 102–300 (from UniProt Q96EZ8 102-300) (domain or fragment)”, the binding entry in assay [2] was “binds”.

For “Gal4 AD-importin β (from UniProt Q14974 1-876)”, the binding entry in assay [1] is given as “no binding”.

Take “in vitro-translated MSP58 (full length) (from UniProt Q96EZ8 1-462)”: in assay [3], the binding result is “binds”.

As for “endogenous importin α6 (HT1080) (from UniProt O15131 1-539)”, the binding result in assay [4] is “binds”.

As to “Gal4 AD-importin α6 (entire) (from UniProt O15131 1-539)”, the binding result with LexA-MSP58 102–300 is “binds”; with LexA-MSP58 1–100 it was “binds”; with LexA-MSP58 300–462, “no binding”; with LexA-MSP58 1–300 it was “binds”; in assay [1], “binds”.

For the substance “EGFP-MSP58 1–100 (from UniProt Q96EZ8 1-100) (domain or fragment)”, the binding result in assay [2] is given as “binds”.
